According to the supplement of paper PMC12217912:
This is one part of the list. The full chains were built here from the parent and the listed change. Values near 0.05 are background.

B1: TEV protease; numbered along this chain (parent)
chain: MGESLFKGPRDYNPISSSICHLTNESDGHTTSLYGIGFGPFIITNKHLFRRNNGTLVVQSLHGVFKVKDTTTLQQHLVDGRDMIIIRMPKDFPPFPQKLKFREPQREERICLVTTNFQTKSMSSMVSDTSCTFPSGDGIFWKHWIQTKDGQCGSPLVSTRDGFIVGIHSASNFTNTNNYFTSVPKNFMELLTNQEAQQWVSGWRLNADSVLWGGHKVFMVKPEEPFQPVKEATQL

Variants of: B1
Assay: raw area under fraction-flipped curve 0-4 h after induction (AUC4h, not background-subtracted), DNA-recorder readout of cleavage of the substrate (dimensionless); higher = more cleavage of the substrate by the protease variant
Details: temperature: 34 °C; time window: 0-4 h after rhamnose induction
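Also: Bxb1 expression induced with 0.2% (w/v) L-rhamnose at OD600 near 0.5, cultures sampled hourly, flipped fraction per protease–substrate barcode pair counted by paired-end Illumina sequencing.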

Variant	area with substrate ENAYFQS	area with substrate ENDYFQS	area with substrate ENFYFQS	area with substrate ENHYFQS	area with substrate ENKYFQS	area with substrate ENNYFQS	area with substrate ENQYFQS	area with substrate ENRYFQS	area with substrate ENSYFQS	area with substrate ENVYFQS	area with substrate ENYYFQS	area with substrate ENCYFQS	area with substrate ENEYFQS	area with substrate ENGYFQS	area with substrate ENIYFQS	area with substrate ENPYFQS	area with substrate ENMYFQS	area with substrate ENTYFQS	area with substrate ENWYFQS
MGESLFKGPRDYNPISSSICHLTNESDGHTTSLYGIGFGPFIITNKHLFRRNNGTLVVQSLHGVFKVKDTTTLQQHLVDGRDMIIIRMPKDFPPFPQKLKFREPQREERICLVTTNFQTKSMSSMVSDTSCTFPSGDGIFWKLWIQTKDGQCGSPLVSTRDGFIVGIHSASNFTNTNNYFTSVPKNFMELLTNQEAQQWVSGWRLNADSVLWGGHKVFMVKPEEPFQPVKEATQL [H143L]	0.0622	0.0602	0.045	0.0691	0.0667	0.0653	0.0591	0.0538	0.0616	0.0608	0.0474	–	–	–	–	–	–	–	–
MGESLFKGPRDYNPISSSICHLTNESDGHTTSLYGIGFGPFIITNKHLFRRNNGTLVVQSLHGVFKVKDTTTLQQHLVDGRDMIIIRMPKDFPPFPQKLKFREPQREERICLVTTNFQTKSMSSMVSDTSCTFPSGDGIFWKWWIQTKDGQCGSPLVSTRDGFIVGIHSASNFTNTNNYFTSVPKNFMELLTNQEAQQWVSGWRLNADSVLWGGHKVFMVKPEEPFQPVKEATQL [H143W]	0.0465	0.0627	0.0618	0.0641	0.0576	0.0563	0.0614	0.073	0.0592	0.0491	0.0555	0.0594	0.054	0.0627	0.0619	0.0635	–	–	–
MGESLFKGPRDYNPISSSICHLTNESDGHTTSLYGIGFGPFIITNKHLFRRNNGTLVVQSLHGVFKVKDTTTLQQHLVDGRDMIIIRMPKDFPPFPQKLKFREPQREERICLVTTNFQTKSMSSMVSDTSCTFPSGDGIFWKHWYQTKDGQCGSPLVSTRDGFIVGIHSASNFTNTNNYFTSVPKNFMELLTNQEAQQWVSGWRLNADSVLWGGHKVFMVKPEEPFQPVKEATQL [I145Y]	0.0642	0.058	0.0502	0.0557	0.0574	0.0658	0.0695	0.0587	0.0554	0.0494	–	0.0736	0.0627	0.0817	0.0651	0.0571	0.0677	0.0592	0.0725
MGESLFKGPRDYNPISSSICHLTNESDGHTTSLYGIGFGPFIITNKHLFRRNNGTLVVQSLHGVFKVKDTTTLQQHLVDGRDMIIIRMPKDFPPFPQKLKFREPQREERICLVTTNFQTKSMSSMVSDTSCTFPSGDGIFWKHWIQTFDGQCGSPLVSTRDGFIVGIHSASNFTNTNNYFTSVPKNFMELLTNQEAQQWVSGWRLNADSVLWGGHKVFMVKPEEPFQPVKEATQL [K148F]	0.07	0.0629	–	0.0582	–	–	0.0702	0.0479	–	–	–	0.103	0.0602	–	–	–	–	–	–
MGESLFKGPRDYNPISSSICHLTNESDGHTTSLYGIGFGPFIITNKHLFRRNNGTLVVQSLHGVFKVKDTTTLQQHLVDGRDMIIIRMPKDFPPFPQKLKFREPQREERICLVTTNFQTKSMSSMVSDTSCTFPSGDGIFWKHWIQTIDGQCGSPLVSTRDGFIVGIHSASNFTNTNNYFTSVPKNFMELLTNQEAQQWVSGWRLNADSVLWGGHKVFMVKPEEPFQPVKEATQL [K148I]	0.0312	0.042	0.0681	–	–	0.0751	0.055	–	–	0.063	0.0994	0.0583	0.0574	–	0.0937	0.0584	–	0.0543	–
MGESLFKGPRDYNPISSSICHLTNESDGHTTSLYGIGFGPFIITNKHLFRRNNGTLVVQSLHGVFKVKDTTTLQQHLVDGRDMIIIRMPKDFPPFPQKLKFREPQREERICLVTTNFQTKSMSSMVSDTSCTFPSGDGIFWKHWIQTPDGQCGSPLVSTRDGFIVGIHSASNFTNTNNYFTSVPKNFMELLTNQEAQQWVSGWRLNADSVLWGGHKVFMVKPEEPFQPVKEATQL [K148P]	0.072	0.0613	0.0813	0.0662	0.0599	–	–	0.0632	–	–	0.0677	0.0738	0.0643	–	–	0.0547	0.0565	0.066	–
MGESLFKGPRDYNPISSSICHLTNESDGHTTSLYGIGFGPFIITNKHLFRRNNGTLVVQSLHGVFKVKDTTTLQQHLVDGRDMIIIRMPKDFPPFPQKLKFREPQREERICLVTTNFQTKSMSSMVSDTSCTFPSGDGIFWKHWIQTKKGQCGSPLVSTRDGFIVGIHSASNFTNTNNYFTSVPKNFMELLTNQEAQQWVSGWRLNADSVLWGGHKVFMVKPEEPFQPVKEATQL [D149K]	0.0757	0.0617	–	0.0606	–	0.0634	0.0622	0.0656	–	0.0685	0.0553	0.0653	0.0509	0.0746	0.0604	0.0589	–	0.0421	0.0507
MGESLFKGPRDYNPISSSICHLTNESDGHTTSLYGIGFGPFIITNKHLFRRNNGTLVVQSLHGVFKVKDTTTLQQHLVDGRDMIIIRMPKDFPPFPQKLKFREPQREERICLVTTNFQTKSMSSMVSDTSCTFPSGDGIFWKHWIQTKNGQCGSPLVSTRDGFIVGIHSASNFTNTNNYFTSVPKNFMELLTNQEAQQWVSGWRLNADSVLWGGHKVFMVKPEEPFQPVKEATQL [D149N]	0.0664	0.0264	0.0533	–	0.0407	0.0605	0.073	0.0718	0.0482	0.0737	0.0539	0.0616	0.0495	–	0.0968	–	0.0657	0.0588	0.0538
MGESLFKGPRDYNPISSSICHLTNESDGHTTSLYGIGFGPFIITNKHLFRRNNGTLVVQSLHGVFKVKDTTTLQQHLVDGRDMIIIRMPKDFPPFPQKLKFREPQREERICLVTTNFQTKSMSSMVSDTSCTFPSGDGIFWKHWIQTKDGCCGSPLVSTRDGFIVGIHSASNFTNTNNYFTSVPKNFMELLTNQEAQQWVSGWRLNADSVLWGGHKVFMVKPEEPFQPVKEATQL [Q151C]	0.0591	0.0623	0.0618	0.0631	0.0285	0.0635	0.062	0.0581	0.0729	0.0715	–	0.057	0.0646	0.072	0.0856	–	0.0629	0.062	–
MGESLFKGPRDYNPISSSICHLTNESDGHTTSLYGIGFGPFIITNKHLFRRNNGTLVVQSLHGVFKVKDTTTLQQHLVDGRDMIIIRMPKDFPPFPQKLKFREPQREERICLVTTNFQTKSMSSMVSDTSCTFPSGDGIFWKHWIQTKDGICGSPLVSTRDGFIVGIHSASNFTNTNNYFTSVPKNFMELLTNQEAQQWVSGWRLNADSVLWGGHKVFMVKPEEPFQPVKEATQL [Q151I]	0.0588	0.0691	0.0603	0.0603	0.0629	0.0605	0.051	–	0.0548	0.0665	0.0584	0.0767	0.06	0.0597	–	0.0514	0.0565	0.0563	0.0113
MGESLFKGPRDYNPISSSICHLTNESDGHTTSLYGIGFGPFIITNKHLFRRNNGTLVVQSLHGVFKVKDTTTLQQHLVDGRDMIIIRMPKDFPPFPQKLKFREPQREERICLVTTNFQTKSMSSMVSDTSCTFPSGDGIFWKHWIQTKDGWCGSPLVSTRDGFIVGIHSASNFTNTNNYFTSVPKNFMELLTNQEAQQWVSGWRLNADSVLWGGHKVFMVKPEEPFQPVKEATQL [Q151W]	0.0593	0.0586	0.0656	0.0643	–	0.0589	0.0638	0.059	0.065	0.0744	–	0.0799	0.0632	0.0698	0.0767	0.0599	0.0624	0.0674	0.0739
MGESLFKGPRDYNPISSSICHLTNESDGHTTSLYGIGFGPFIITNKHLFRRNNGTLVVQSLHGVFKVKDTTTLQQHLVDGRDMIIIRMPKDFPPFPQKLKFREPQREERICLVTTNFQTKSMSSMVSDTSCTFPSGDGIFWKHWIQTKDGQCGGPLVSTRDGFIVGIHSASNFTNTNNYFTSVPKNFMELLTNQEAQQWVSGWRLNADSVLWGGHKVFMVKPEEPFQPVKEATQL [S154G]	0.0529	0.0731	0.0773	–	0.0663	0.0489	0.0586	–	–	0.0562	0.055	0.0678	0.0774	–	–	–	0.0769	–	0.054
MGESLFKGPRDYNPISSSICHLTNESDGHTTSLYGIGFGPFIITNKHLFRRNNGTLVVQSLHGVFKVKDTTTLQQHLVDGRDMIIIRMPKDFPPFPQKLKFREPQREERICLVTTNFQTKSMSSMVSDTSCTFPSGDGIFWKHWIQTKDGQCGPPLVSTRDGFIVGIHSASNFTNTNNYFTSVPKNFMELLTNQEAQQWVSGWRLNADSVLWGGHKVFMVKPEEPFQPVKEATQL [S154P]	0.0451	0.0655	0.0629	–	0.065	0.058	–	0.056	–	–	0.0676	0.0655	0.0652	0.0642	0.0444	–	0.0564	0.0632	0.0638
MGESLFKGPRDYNPISSSICHLTNESDGHTTSLYGIGFGPFIITNKHLFRRNNGTLVVQSLHGVFKVKDTTTLQQHLVDGRDMIIIRMPKDFPPFPQKLKFREPQREERICLVTTNFQTKSMSSMVSDTSCTFPSGDGIFWKHWIQTKDGQCGSCLVSTRDGFIVGIHSASNFTNTNNYFTSVPKNFMELLTNQEAQQWVSGWRLNADSVLWGGHKVFMVKPEEPFQPVKEATQL [P155C]	0.0627	0.0628	0.0516	–	0.0522	–	–	–	0.0654	–	–	–	0.0594	0.0557	0.0664	0.0605	0.0824	0.0241	0.0377
MGESLFKGPRDYNPISSSICHLTNESDGHTTSLYGIGFGPFIITNKHLFRRNNGTLVVQSLHGVFKVKDTTTLQQHLVDGRDMIIIRMPKDFPPFPQKLKFREPQREERICLVTTNFQTKSMSSMVSDTSCTFPSGDGIFWKHWIQTKDGQCGSPDVSTRDGFIVGIHSASNFTNTNNYFTSVPKNFMELLTNQEAQQWVSGWRLNADSVLWGGHKVFMVKPEEPFQPVKEATQL [L156D]	0.0581	0.047	0.0518	0.0515	–	–	0.0389	0.0601	0.0467	0.0531	–	0.0581	0.065	0.0678	0.0516	–	–	0.0512	–
MGESLFKGPRDYNPISSSICHLTNESDGHTTSLYGIGFGPFIITNKHLFRRNNGTLVVQSLHGVFKVKDTTTLQQHLVDGRDMIIIRMPKDFPPFPQKLKFREPQREERICLVTTNFQTKSMSSMVSDTSCTFPSGDGIFWKHWIQTKDGQCGSPMVSTRDGFIVGIHSASNFTNTNNYFTSVPKNFMELLTNQEAQQWVSGWRLNADSVLWGGHKVFMVKPEEPFQPVKEATQL [L156M]	0.0764	0.0556	0.0763	0.0521	–	0.0641	0.0631	0.066	0.0701	0.0731	0.0454	–	0.0538	–	0.142	0.0672	0.0803	0.0541	0.057
MGESLFKGPRDYNPISSSICHLTNESDGHTTSLYGIGFGPFIITNKHLFRRNNGTLVVQSLHGVFKVKDTTTLQQHLVDGRDMIIIRMPKDFPPFPQKLKFREPQREERICLVTTNFQTKSMSSMVSDTSCTFPSGDGIFWKHWIQTKDGQCGSPVVSTRDGFIVGIHSASNFTNTNNYFTSVPKNFMELLTNQEAQQWVSGWRLNADSVLWGGHKVFMVKPEEPFQPVKEATQL [L156V]	0.0678	0.0588	0.065	–	0.0648	0.0542	0.0618	0.0522	0.0618	0.0715	–	0.0464	0.063	0.0401	–	0.0481	0.0742	0.0557	–
MGESLFKGPRDYNPISSSICHLTNESDGHTTSLYGIGFGPFIITNKHLFRRNNGTLVVQSLHGVFKVKDTTTLQQHLVDGRDMIIIRMPKDFPPFPQKLKFREPQREERICLVTTNFQTKSMSSMVSDTSCTFPSGDGIFWKHWIQTKDGQCGSPLVSLRDGFIVGIHSASNFTNTNNYFTSVPKNFMELLTNQEAQQWVSGWRLNADSVLWGGHKVFMVKPEEPFQPVKEATQL [T159L]	0.0711	0.0572	–	–	0.0664	0.062	0.0698	–	–	0.0964	–	–	0.0633	–	0.0999	–	0.102	0.0507	–
